In all, about 420,000 compounds went through this assay and about 64,000 (15%) were called active. Inconclusive results, whose numbers are uncertain, are shown with a selection of clear calls. Calls come from the whole dose curve; as a rule, active = well fitted inhibition curve with a large enough effect; inconclusive = small, poorly fitted or top-dose-only effect; inactive = flat fitted curve, though single readings scatter. Potencies of inconclusive entries are left out as doubtful fits.
Assay: qHTS for Inhibitors of human tyrosyl-DNA phosphodiesterase 1 (TDP1): qHTS in cells in absence of CPT; note: nearly all actives have a fitted effect of over 55% in size
Conditions: DT40 Tdp1-/- hTDP1 cells, no CPT, ATP luminescence, 48 h; activity change, negative = growth inhibition: at 46.2 µM (top of the series) unless noted
Outline: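 Cells were dispensed at 400 per well, compounds added by pin tool, plates incubated ≥48 hr at 37 °C, then CellTiter-Glo added for 30 min at room temperature before luminescence reading. Line: DT40 Tdp1-/- complemented with hTDP1; camptothecin omitted.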
For `CC(C)(C)/C(O)=C/c1nc2ccccc2oc1=O`, the Potency was inconclusive [inhibitor, single point]. For `O=C(CC1N=C2c3ccccc3N=C(SCc3cccc(Cl)c3)N2C1=O)NCCc1ccccc1` (stereo not given), the Potency was inconclusive [inhibitor, single point]. With `CCOc1ccc(CCNC(=O)Cn2cccc2C(=O)c2ccccc2C)cc1OCC` the Potency was inconclusive [inhibitor, single point]. For `Cc1c2c(=O)n(-c3nc4ccccc4s3)nc-2cc(O)n1Cc1ccccc1`, the Potency was active: 14.6 µM. With `CCCCNC(=O)C1CCCN1C(=O)Nc1cccc(OC)c1` (stereo not given) the “activity change, negative = growth inhibition” value was inactive: 1.22%. In the case of `COc1ccc2[nH]c3nc(SCc4nnc(-c5ccc(C)cc5)o4)nnc3c2c1`, the Potency is reported as active: 16.4 µM. With `O=C(/C=C/c1ccco1)N1CCN(C/C=C/c2ccccc2)CC1` the Potency was inconclusive [inhibitor, single point]. With `O=C(NCC1CC1)c1ccc(-c2cn[nH]c2)c2ccoc12` the Potency was inconclusive [inhibitor, single point]. In the case of `CCOC(=O)C1(C)CCN1C(=O)c1cc(-c2ccc(Cl)cc2)oc1C` (stereo not given), the Potency is reported as active: 5.17 µM. For `Cc1ccc(S(=O)(=O)C(CNC(=O)C(=O)NCCc2ccc(Cl)cc2)c2cccs2)cc1` (stereo not given), the Potency was inconclusive [inhibitor, full curve]. For `CCOc1ccc(CCNC(=O)CS(=O)(=O)Cc2nc(-c3ccccc3F)oc2C)cc1`, the Potency was active: 11.6 µM. For `CC(NC(=S)NCCc1ccccc1)C(c1cccs1)N1CCN(C)CC1` (stereo not given), the “activity change, negative = growth inhibition” value was inactive: -3.44%. In the case of `O=C(Cn1c(=O)nc(-c2ccccc2)c2cc(Cl)ccc21)NCc1ccc(Cl)cc1`, the Potency is reported as active: 23.1 µM. For `C[C@H](CO)N1C[C@H](C)[C@H](CN(C)S(=O)(=O)c2cn(C)cn2)Oc2ccc(NC(=O)Nc3ccc(C(F)(F)F)cc3)cc2CC1=O`, the Potency was active: 13 µM. In the case of `CCOCCN1CCN(c2c(C)c(C)nc3cc(-c4cc(OC)cc(OC)c4)nn23)CC1`, the Potency is reported as active: 25.9 µM. In the case of `COc1ccc(-c2nc3cccc(C)n3c2NCC2CCCO2)cc1O` (stereo not given), the Potency is reported as inconclusive [inhibitor, partial curve]. For `CCOC(=O)c1sc(NC(=O)c2cccnc2)c(C#N)c1C`, the “activity change, negative = growth inhibition” value was inactive: -1.1%. For `OC1(c2cccnc2)CCN(Cc2ccc3c(c2)CN(Cc2cc(F)cc(F)c2)CCO3)CC1`, the Potency was inconclusive [inhibitor, single point]. For `COC(=O)c1ccccc1NC(=O)COC(=O)CO/N=C(\C)c1ccc2c(c1)OCO2`, the “activity change, negative = growth inhibition” value was inactive: -28.7%. For `Cc1cc(C)c2c(Cn3ccnc3)cc(=O)oc2c1`, the “activity change, negative = growth inhibition” value was inactive: -22.5%. For `Cc1c(CNC2CCC(C)CC2)c(C(=O)O)c(C)n1Cc1ccccc1` (stereo not given), the “activity change, negative = growth inhibition” value was inactive: -20.9%. In the case of `CCCNC1=C(N(C(C)=O)c2cccc(F)c2)C(=O)c2ccccc2C1=O`, the Potency is reported as active: 2.06 µM. In the case of `O=C(O)c1ccc(N2CCN(c3ccc(Cl)cc3)CC2)c([N+](=O)[O-])c1`, the “activity change, negative = growth inhibition” value is reported as inactive: -3.53%. For `O=C(c1cc(C2CC2)nn1-c1ccccc1)N1CCN(Cc2ccccc2F)CC1`, the Potency was active: 23.1 µM. In the case of `O=C(Nc1cnn(Cc2ccc(Cl)cc2Cl)c1)c1noc2c1CCc1ccccc1-2`, the Potency is reported as inconclusive [inhibitor, single point]. In the case of `O=C(CCS(=O)(=O)c1cc2c3c(c1)CCN3C(=O)CC2)Nc1cccc(Br)c1`, the Potency is reported as inconclusive [inhibitor, single point]. In the case of `CCOc1ccc(CCNC(=O)c2ccc3c(c2)N(Cc2ccccc2F)C(=O)c2ccccc2S3=O)cc1OCC` (stereo not given), the Potency is reported as active: 23.1 µM. With `COc1ccc(CCNS(=O)(=O)c2cc(-c3onc(C)c3C)ccc2OC)cc1OC` the Potency was inconclusive [inhibitor, single point]. For `Nc1nccc(N2CCCCC2)n1`, the Potency was inconclusive [inhibitor, partial curve, poor fit]. In the case of `COc1cccc(C(=O)Nc2ccc3ccccc3c2)c1`, the Potency is reported as inconclusive [inhibitor, single point]. With `CCOC(=O)c1cc(-c2ccccc2)nn1CC1CC(c2ccc(OC)cc2)=NO1` (stereo not given) the Potency was inconclusive [inhibitor, single point]. With `COCc1cccc(-c2csc(C(C)(O)c3cccc(F)c3)n2)c1` (stereo not given) the Potency was inconclusive [inhibitor, partial curve, poor fit]. With `COCCCNC(=O)Cn1cnc2c(OCc3ccccc3)ncnc21` the “activity change, negative = growth inhibition” value was inactive: -1.98%. For `O=C(COCc1cc(-c2ccc3c(c2)OCO3)on1)Nc1cc(C(F)(F)F)ccc1Cl`, the Potency was inconclusive [inhibitor, partial curve]. With `CCN1CCN(CCCNC(=O)Cn2c(-c3cccs3)cc3cc(F)ccc32)CC1` the Potency was inconclusive [inhibitor, single point]. In the case of `Cc1ccc(C)c(Nc2nn3c(=O)c4cc5c(cc4nc3s2)OCO5)c1`, the Potency is reported as active: 18.4 µM. For `O=C(Nc1ccccc1)c1cc(C2COCCN2C(=O)CCCc2ccccc2)on1` (stereo not given), the Potency was inconclusive [inhibitor, single point]. With `COCCCNC(=O)C[C@@H]1C[C@@]2(C(=O)OC)CCCCC=C2N(CCc2ccc(OC)c(OC)c2)C1=O` the Potency was inconclusive [inhibitor, single point]. For `CCOC(=O)c1ccc(NC(=O)C(=O)NCc2ccncc2)cc1`, the “activity change, negative = growth inhibition” value was inactive: -15.9%. For `CC(=O)Nc1ccc(S(=O)(=O)N2CCN(C(=O)c3ncoc3-c3cccc(F)c3)CC2)cc1`, the Potency was inconclusive [inhibitor, single point]. With `C[C@]12c3[nH]c4cc(-c5ccco5)ccc4c3CCN1C(=O)[C@@H](CC(=O)NCCC1=CCCCC1)C[C@@H]2C(=O)N1CCCCC1` the Potency was inconclusive [inhibitor, single point]. In the case of `CC(Oc1ccc(F)cc1)C(=O)Nc1nc(-c2ccccn2)cs1` (stereo not given), the Potency is reported as active: 5.17 µM. In the case of `CCCCc1nc2ccccc2c(=O)n1NC(=O)c1c(O)c2ccccc2n(C)c1=O`, the Potency is reported as active: 3.66 µM. For `O=c1c(S(=O)(=O)c2ccccc2)cn(Cc2cccc(F)c2)c2cc(N3CCCC3)c(F)cc12`, the Potency was inconclusive [inhibitor, single point]. For `COc1ccccc1N1CCN(S(=O)(=O)CCNC(=O)Cc2ccc(Cl)cc2)CC1`, the Potency was active: 23.1 µM.

From PubChem BioAssay AID686978 (National Center for Advancing Translational Sciences (NCATS), 2013)
% is set by controls: 0 for no effect and ±100 for the full control effect; potency is the fitted concentration of half-maximal effect; tags give direction and shape of the fitted curve.
